According to PubChem BioAssay AID485281 (National Center for Advancing Translational Sciences (NCATS), 2010):
The whole screen tested about 350,000 compounds, of which about 260 (0.074%) were called active. The inconclusive results got no clear call from the source; some entries with a clear call stand among them for comparison. Calls follow the shape of the dose curve; as a rule, active = well fitted inhibition curve with a large enough effect; inconclusive = small, poorly fitted or top-dose-only effect; inactive = no such curve, though single readings can be large or run the other way. Where the call is inconclusive, the potency comes from a doubtful curve fit.

The compounds below were run against Ferritin light chain (Equus caballus) (UniProt P02791) (assay: qHTS Assay for Identification of Novel General Anesthetics). Details: apoferritin/1-aminoanthracene competitive binding, fluorescence; activity change, negative = displacement: at 77.5 µM (top of the series).
Chain of UniProt P02791 (P02791 whole entry, looked up): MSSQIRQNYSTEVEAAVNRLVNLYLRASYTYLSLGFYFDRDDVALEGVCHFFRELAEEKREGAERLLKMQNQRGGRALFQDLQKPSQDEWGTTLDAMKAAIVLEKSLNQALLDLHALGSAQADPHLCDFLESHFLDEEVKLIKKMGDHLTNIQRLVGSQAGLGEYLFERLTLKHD
Summary of the method: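 In PBS, apoferritin at 10 uM is loaded with 1-AMA from a 50% saturated solution. After 10 min of compound exposure at ambient temperature, reduced 535 nm fluorescence indicates probe displacement.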
% is scaled to controls: 0 for no effect and ±100 for the full control effect; potency is read from the fitted curve at half-maximal effect; tags tell the direction and shape of the fitted curve.
Also: nearly all actives have a fitted effect of over 20% in size.

Potency, inactive:
CCOc1cc(/C=C(\C#N)C(=O)NCC2CCCO2)ccc1O (stereo not given)

Potency, inconclusive:
CCOC(=O)c1c(C)[nH]c(C)c1C(=O)COC(=O)c1cc2ccccc2cc1OC 25.1 µM [inhibitor, partial curve]
Cc1[nH][nH]c(=O)c1C(c1c(C)[nH][nH]c1=O)c1cn(Cc2ccc(F)cc2)c2ccccc12 50.1 µM [inhibitor, single point]
O=C(CN1CCN(S(=O)(=O)N2CCCCC2)CC1)Nc1ccc(Cl)c(Cl)c1 20 µM [inhibitor, partial curve]
O=[N+]([O-])c1cccc(C2(O)COc3ccccc3O2)c1 (stereo not given) 14.1 µM [inhibitor, partial curve]
O=C(/C=C/c1ccccc1[N+](=O)[O-])c1ccccc1Br 25.1 µM [inhibitor, partial curve]
CC(=O)N1CCN(c2ccc(NCc3ccc(C(C)C)cc3)cc2)CC1 20 µM [inhibitor, partial curve]
C[C@@H]1CC2[C@@H]3CC[C@H]4CC(=O)CC[C@]4(C)C3=CC[C@]2(C)[C@@]1(O)C(=O)CO (stereo not given in full) 39.8 µM [inhibitor, single point]
O=C(NCCCN1CCCC1)c1ccc(Cn2c(=S)[nH]c3ccc(Br)cc3c2=O)cc1 31.6 µM [inhibitor, partial curve]
CSc1nc2c(cc1C#N)C(=O)CC(C)(C)C2 35.5 µM [inhibitor, single point]
O=C(Cc1ccc(Br)cc1)OCC(=O)N1CCc2ccccc2C1 31.6 µM [inhibitor, partial curve]
CN1CCN(/N=C/c2ccc(-c3ccc([N+](=O)[O-])cc3)o2)CC1 25.1 µM [inhibitor, single point]
N#Cc1ccc(COC(=O)CSc2nnc(C3CCCCC3)n2N)cc1 11.2 µM [inhibitor, partial curve, poor fit]
Cc1nc(NC(=O)CCc2ccccc2)sc1C 22.4 µM [inhibitor, partial curve]
CC(=O)c1ccc(OCc2cc(C(=O)N3CC4C[C@@H]5CC3C[C@H](C4)C5)no2)cc1 50.1 µM [inhibitor, single point]
C/C(=N\NC(=O)Cn1ccc(C(F)(F)F)n1)c1ccc2c(c1)OCO2 22.4 µM [inhibitor, partial curve]
CCOC(=O)C1=C(c2ccccc2)NC(SC)=C(C#N)C1c1ccco1 (stereo not given) 14.1 µM [inhibitor, partial curve]
Cc1ccc(NC(=O)c2ccoc2C)cc1C 35.5 µM [inhibitor, partial curve]
O=C(CSc1ccc([N+](=O)[O-])cn1)Nc1cc(C(F)(F)F)ccc1N1CCOCC1 28.2 µM [inhibitor, partial curve]
CCOC(=O)N(C)c1ccc(C(O)(C(F)(F)F)C(F)(F)F)cc1 31.6 µM [inhibitor, partial curve]
CCCNC(=O)C(=O)NCCC1=CCCCC1 5.62 µM [inhibitor, full curve]
CC1=C(c2ccc(C)c(C)c2)S(=O)(=O)N=C1N1CCC(C(=O)N2CCC(C)CC2)CC1 35.5 µM [inhibitor, partial curve]
O=C(NCCOc1ccc(Cl)cc1)C(=O)NCC1CCCO1 (stereo not given) 31.6 µM [inhibitor, partial curve]
CCn1c(SCC(=O)c2ccc3c(c2)OCCO3)nnc1C(C)C 0.891 µM [inhibitor, full curve, poor fit]
COc1ccc(NC(=O)CN2C(=O)/C(=C3\SC(=S)N(CCC(=O)O)C3=O)c3ccccc32)cc1 39.8 µM [inhibitor, single point]
ClCc1ncc(-c2ccc(Cl)cc2)o1 25.1 µM [inhibitor, partial curve]
C=CCNCCCCOc1ccc(OCc2ccccc2)cc1 35.5 µM [inhibitor, partial curve]
CCN(CC)c1ccc(NC(=O)c2nc3nc(C)cc(C(F)F)n3n2)cc1 25.1 µM [inhibitor, single point]
COc1cccc(/C=C2\SC(=S)N(C(Cc3ccccc3)C(=O)O)C2=O)c1 (stereo not given) 35.5 µM [inhibitor, partial curve]
Nn1c(SCC(=O)NC2CCCc3ccccc32)nnc1-c1cccs1 (stereo not given) 25.1 µM [inhibitor, partial curve]
COc1cc(NC(=O)c2cccc3c2C(=O)N(C2CCCCC2)C3)cc(OC)c1OC 10 µM [inhibitor, partial curve]
Oc1ccc(CNc2ccccc2F)c2cccnc12 31.6 µM [inhibitor, single point]

Activity change, negative = displacement, inactive:
Cc1cc(=O)oc2cc(OC(C)C(=O)O)c(Cl)cc12 (stereo not given) -5.91%
CC(C)Cn1c(/C=N/Nc2nc3ccccc3[nH]2)nc2ccccc21 -6.47%
S=c1[nH]nc(-c2cccs2)n1C1CCCCC1 3.14%
COc1cc2[nH]c(=S)nc(NCCC(C)C)c2cc1OC -12.8%
O=C(NCC1CCCCC1)c1cccnc1Cl 1.52%
Cc1cc(CN2CCN(c3ccccc3F)CC2)cs1 -8.24%
CCOc1ccccc1CNC(=O)c1cc2oc3ccccc3c2n1C 53%
CN(c1ccccc1C(=O)Nc1ccc2c(c1)n(C)c(=O)n2C)S(C)(=O)=O -2.9%
O=C(CCc1ccccc1)NNC(=S)NC(=O)c1ccccc1 -18%
CCN(CC)CCNS(=O)(=O)c1ccc(Cl)cc1 -6.49%
O=C1OC(/C=C/c2ccc(Cl)cc2Cl)=NC/1=C\c1cccs1 -6.96%
CC(C)(C=O)C1=CC(=O)c2ccccc2C1=O -3.25%
Oc1ccccc1-c1nc(/C=C/c2ccccc2Cl)nn1-c1ccccc1 8.66%
